This is one part of the list.
Legend:
Assay in all cases: glycan array binding signal (z-score within array); higher = stronger binding
Settings in all cases: glycan notation: IUPAC condensed, linker removed
[1] = molecular target: Gal(b1-4)GlcNAc(b1-2)Man(a1-3)[Gal(b1-4)GlcNAc(b1-2)Man(a1-6)]Man(b1-4)GlcNAc(b1-4)GlcNAc
In short: (§1)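 The binding signal is a Z-score computed within each array. Data were drawn from 3228 arrays in the Consortium for Functional Glycomics database, restricted to those with a known protein sequence. Scores were averaged over arrays of the same protein sequence at different concentrations or buffers, and over linkers, and negative values can be taken as non-binding.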

[2] = molecular target: Gal(b1-4)GlcNAc(b1-2)Man(a1-3)[Gal(b1-4)GlcNAc(b1-2)Man(a1-6)]Man(b1-4)GlcNAc(b1-4)[Fuc(a1-6)]GlcNAc
In short: as §1

[3] = molecular target: Gal(b1-4)GlcNAc(b1-2)Man(a1-3)[Gal(b1-4)GlcNAc(b1-2)Man(a1-6)][Gal(b1-4)GlcNAc(b1-4)]Man(b1-4)GlcNAc(b1-4)[Fuc(a1-6)]GlcNAc
In short: as §1

[4] = molecular target: Gal(b1-4)GlcNAc(b1-2)Man(a1-3)[Gal(b1-4)GlcNAc(b1-2)Man(a1-6)][GlcNAc(b1-4)]Man(b1-4)GlcNAc(b1-4)[Fuc(a1-6)]GlcNAc
In short: as §1

[5] = molecular target: Gal(b1-4)GlcNAc(b1-2)Man(a1-3)[GlcNAc(b1-2)Man(a1-6)]Man(b1-4)GlcNAc(b1-4)GlcNAc
In short: as §1

[6] = molecular target: Gal(b1-4)GlcNAc(b1-2)Man(a1-3)[GlcNAc(b1-4)][Gal(b1-4)GlcNAc(b1-2)Man(a1-6)]Man(b1-4)GlcNAc(b1-4)GlcNAc
In short: as §1

[7] = molecular target: Gal(b1-4)GlcNAc(b1-2)Man(a1-3)[Man(a1-6)]Man(b1-4)GlcNAc(b1-4)GlcNAc
In short: as §1

[8] = molecular target: Gal(b1-4)GlcNAc(b1-2)Man(a1-6)Man(b1-4)GlcNAc(b1-4)GlcNAc
In short: as §1

[9] = molecular target: Gal(b1-4)GlcNAc(b1-2)Man(a1-6)[GlcNAc(b1-2)Man(a1-3)]Man(b1-4)GlcNAc(b1-4)GlcNAc
In short: as §1

[10] = molecular target: Gal(b1-4)GlcNAc(b1-2)Man(a1-6)[Man(a1-3)]Man(b1-4)GlcNAc(b1-4)GlcNAc
In short: as §1

[11] = molecular target: Gal(b1-4)GlcNAc(b1-2)[Gal(b1-4)GlcNAc(b1-4)]Man(a1-3)[Gal(b1-4)GlcNAc(b1-2)Man(a1-6)]Man(b1-4)GlcNAc(b1-4)GlcNAc
In short: as §1

[12] = molecular target: Gal(b1-4)GlcNAc(b1-2)[Gal(b1-4)GlcNAc(b1-4)]Man(a1-3)[Gal(b1-4)GlcNAc(b1-2)[Gal(b1-4)GlcNAc(b1-6)]Man(a1-6)]Man(b1-4)GlcNAc(b1-4)GlcNAc
In short: as §1

[13] = molecular target: Gal(b1-4)GlcNAc(b1-2)[Gal(b1-4)GlcNAc(b1-4)]Man(a1-3)[GlcNAc(b1-4)][Gal(b1-4)GlcNAc(b1-2)Man(a1-6)]Man(b1-4)GlcNAc(b1-4)GlcNAc
In short: as §1

[14] = molecular target: Gal(b1-4)GlcNAc(b1-2)[Gal(b1-4)GlcNAc(b1-4)]Man(a1-3)[GlcNAc(b1-4)][Gal(b1-4)GlcNAc(b1-2)[Gal(b1-4)GlcNAc(b1-6)]Man(a1-6)]Man(b1-4)GlcNAc(b1-4)GlcNAc
In short: as §1

[15] = molecular target: Gal(b1-4)GlcNAc(b1-2)[Gal(b1-4)GlcNAc(b1-6)]Man(a1-6)[Gal(b1-4)GlcNAc(b1-2)Man(a1-3)]Man(b1-4)GlcNAc(b1-4)GlcNAc
In short: as §1

[16] = molecular target: Gal(b1-4)GlcNAc(b1-2)[Gal(b1-4)GlcNAc(b1-6)]Man(a1-6)[Gal(b1-4)GlcNAc(b1-2)Man(a1-3)]Man(b1-4)GlcNAc(b1-4)[Fuc(a1-6)]GlcNAc
In short: as §1

[17] = molecular target: Gal(b1-4)GlcNAc(b1-2)[Gal(b1-4)GlcNAc(b1-6)]Man(a1-6)[GlcNAc(b1-4)][Gal(b1-4)GlcNAc(b1-2)Man(a1-3)]Man(b1-4)GlcNAc(b1-4)GlcNAc
In short: as §1

[18] = molecular target: Gal(b1-4)GlcNAc(b1-2)[Gal(b1-4)GlcNAc(b1-6)]Man(a1-6)[GlcNAc(b1-4)][Gal(b1-4)GlcNAc(b1-2)[Gal(b1-4)GlcNAc(b1-4)]Man(a1-3)]Man(b1-4)GlcNAc(b1-4)[Fuc(a1-6)]GlcNAc
In short: as §1

[19] = molecular target: Gal(b1-4)GlcNAc(b1-3)Gal(b1-3)GalNAc
In short: as §1

B1: DC-ASGPR Long (Homo sapiens) (protein)
chain: MTRTYENFQYLENKVKVQGFKNGPLPLQSLLQRLRSGPCHLLLSLGLGLLLLVIICVVGFQNSKFQRDLVTLRTDFSNFTSNTVAEIQALTSQGSSLEETIASLKAEVEGFKQERQAGVSELQEHTTQKAHLGHCPHCPSVCVPVHSEMLLRVQQLVQDLKKLTCQVATLNNNASTEGTCCPVNWVEHQDSCYWFSHSGMSWAEAEKYCQLKNAHLVVINSREEQNFVQKYLGSAYTWMGLSDPEGAWKWVDGTDYATGFQNWKPGQPDDWQGHGLGGGEDCAHFHPDGGWNDDVCQRPYHWVCEAGLGQTSQESH
glycan array binding signal (z-score) [1]: -0.358
glycan array binding signal (z-score) [2]: -0.26
glycan array binding signal (z-score) [3]: -0.174
glycan array binding signal (z-score) [4]: -0.266
glycan array binding signal (z-score) [5]: 1.08
glycan array binding signal (z-score) [6]: -0.407
glycan array binding signal (z-score) [7]: -0.176
glycan array binding signal (z-score) [8]: 0.872
glycan array binding signal (z-score) [9]: -0.006
glycan array binding signal (z-score) [10]: -0.015
glycan array binding signal (z-score) [11]: -0.035
glycan array binding signal (z-score) [12]: -0.318
glycan array binding signal (z-score) [13]: 0.118
glycan array binding signal (z-score) [14]: -0.794
glycan array binding signal (z-score) [15]: -0.2
glycan array binding signal (z-score) [16]: -0.406
glycan array binding signal (z-score) [17]: -0.175
glycan array binding signal (z-score) [18]: -0.521
glycan array binding signal (z-score) [19]: -0.701

From the supplement of paper PMC8728848
